Test results published in PMC4242493.
This is one part of the list. The list includes weakly bound sequences.

What follows are sequences tested against MaxL homodimer (UniProt P61244) (assay: universal protein-binding microarray (PBM)). Conditions: PBS-based mixture, 10 nM His-tagged protein dimer, 2% milk, 200 ng/uL BSA, 50 ng/uL salmon testes DNA, 0.02% TX-100; detection with Alexa 488 anti-His …; high values mean tight binding; most listed sequences are background and not binding sites; double strand, one strand shown.
UniProt P61244, sequence (P61244 whole entry): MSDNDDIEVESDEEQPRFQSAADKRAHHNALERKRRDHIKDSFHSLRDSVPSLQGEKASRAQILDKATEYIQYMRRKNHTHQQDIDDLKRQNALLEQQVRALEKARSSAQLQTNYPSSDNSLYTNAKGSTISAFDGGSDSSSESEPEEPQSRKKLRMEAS
With GAGATCTA the binding signal (normalized occupancy) was 0.0758. AAGCTAGG showed a binding signal (normalized occupancy) of 0.0695. Work on CCGGTGTC yielded a binding signal (normalized occupancy) of 0.0704. For CTAATACA, the binding signal (normalized occupancy) was 0.0822. In the case of AAATGCAA, the binding signal (normalized occupancy) is reported as 0.0709. In the case of ATTCGCGA, the binding signal (normalized occupancy) is reported as 0.0732. Work on CAGGATCA yielded a binding signal (normalized occupancy) of 0.078. For CGGCTTGA, the binding signal (normalized occupancy) was 0.0699. Sequence ATCGGGGG has a binding signal (normalized occupancy) of 0.0753. GACCGAAA gave a binding signal (normalized occupancy) of 0.0684. In the case of CTGCTGCC, the binding signal (normalized occupancy) is reported as 0.0719. CCTGCTAA was tested, and the binding signal (normalized occupancy) was 0.0709. GGCTGACC gave a binding signal (normalized occupancy) of 0.0689. In the case of ATACTGAG, the binding signal (normalized occupancy) is reported as 0.0804. Sequence GCGTACGC has a binding signal (normalized occupancy) of 0.0765. With ATCGCTTG the binding signal (normalized occupancy) was 0.0686. Sequence ACTGTACC has a binding signal (normalized occupancy) of 0.076. With CGTATGAA the binding signal (normalized occupancy) was 0.0812. CATGTAAG gave a binding signal (normalized occupancy) of 0.0926. Sequence AGTCCGCC has a binding signal (normalized occupancy) of 0.0705. In the case of ATTACCGG, the binding signal (normalized occupancy) is reported as 0.074. For CGGATACC, the binding signal (normalized occupancy) was 0.0816. In the case of ACCTGTTG, the binding signal (normalized occupancy) is reported as 0.0865. Work on ATTTAATC yielded a binding signal (normalized occupancy) of 0.0756. With CAGATAAG the binding signal (normalized occupancy) was 0.076. With CGGACTCC the binding signal (normalized occupancy) was 0.0635. CTTTGGAC was tested, and the binding signal (normalized occupancy) was 0.0706. With ATAGGCAG the binding signal (normalized occupancy) was 0.0779. ATCAGATC showed a binding signal (normalized occupancy) of 0.082. ATTTTCGA was tested, and the binding signal (normalized occupancy) was 0.0726. CCTTTGGA was tested, and the binding signal (normalized occupancy) was 0.0699. With CATATTCG the binding signal (normalized occupancy) was 0.0814. AGATTCAT gave a binding signal (normalized occupancy) of 0.078. For GGGACGAA, the binding signal (normalized occupancy) was 0.0687. Sequence CTGTCCTA has a binding signal (normalized occupancy) of 0.0723. In the case of CCTTTGGC, the binding signal (normalized occupancy) is reported as 0.0703. AGATCTGC gave a binding signal (normalized occupancy) of 0.0741. CTCGGCGA showed a binding signal (normalized occupancy) of 0.0687. ATAAATCC was tested, and the binding signal (normalized occupancy) was 0.0781. In the case of CGTCACGA, the binding signal (normalized occupancy) is reported as 0.0766. CATCCGTC showed a binding signal (normalized occupancy) of 0.0789. ATCGTCTG was tested, and the binding signal (normalized occupancy) was 0.0761. ATACTCGG showed a binding signal (normalized occupancy) of 0.0764. In the case of GGCCAAAA, the binding signal (normalized occupancy) is reported as 0.0691. Work on ACAGTGCA yielded a binding signal (normalized occupancy) of 0.0754. CCCGATCA was tested, and the binding signal (normalized occupancy) was 0.0749. For CGACGTGA, the binding signal (normalized occupancy) was 0.0883. In the case of CATAGTAC, the binding signal (normalized occupancy) is reported as 0.0755. With ATCTGAGC the binding signal (normalized occupancy) was 0.0747. CCGACATC was tested, and the binding signal (normalized occupancy) was 0.0772. Work on CAGGACTC yielded a binding signal (normalized occupancy) of 0.0682. For AATCCTGA, the binding signal (normalized occupancy) was 0.0752. CATCACCA gave a binding signal (normalized occupancy) of 0.0798. ATCATTGG gave a binding signal (normalized occupancy) of 0.0775. Work on GACCTATC yielded a binding signal (normalized occupancy) of 0.0732. CTAGAAAC gave a binding signal (normalized occupancy) of 0.0803. In the case of GCAGGCCC, the binding signal (normalized occupancy) is reported as 0.0707. AGTTGGGA showed a binding signal (normalized occupancy) of 0.0709. In the case of GCGGTCTA, the binding signal (normalized occupancy) is reported as 0.0713. ATATAGCC gave a binding signal (normalized occupancy) of 0.0832. In the case of ATGCTCGA, the binding signal (normalized occupancy) is reported as 0.0758. In the case of CCCCGACG, the binding signal (normalized occupancy) is reported as 0.0767. In the case of ACTTTTAT, the binding signal (normalized occupancy) is reported as 0.0748. GGGGACCC was tested, and the binding signal (normalized occupancy) was 0.0712. Work on TGAAGTCA yielded a binding signal (normalized occupancy) of 0.0773. In the case of GCCAAGTA, the binding signal (normalized occupancy) is reported as 0.075. Sequence GACTGGGA has a binding signal (normalized occupancy) of 0.0742. CAGGGGTA gave a binding signal (normalized occupancy) of 0.078. Sequence ATAAAGAC has a binding signal (normalized occupancy) of 0.0757. With GAACCCTC the binding signal (normalized occupancy) was 0.0726. Work on AGTGCTCG yielded a binding signal (normalized occupancy) of 0.0762. Work on ACACTATC yielded a binding signal (normalized occupancy) of 0.0773. Sequence AAAGATCT has a binding signal (normalized occupancy) of 0.0773. ACGCTTCC gave a binding signal (normalized occupancy) of 0.0742. GGTTCCCA gave a binding signal (normalized occupancy) of 0.0768. CAGGACAG gave a binding signal (normalized occupancy) of 0.0687. CGTATCAG was tested, and the binding signal (normalized occupancy) was 0.0743. In the case of GGTCGATA, the binding signal (normalized occupancy) is reported as 0.078. For ATGAACGG, the binding signal (normalized occupancy) was 0.0783. Sequence GGATGATA has a binding signal (normalized occupancy) of 0.08. Sequence ACTCAACG has a binding signal (normalized occupancy) of 0.0735. Sequence AGTCATGA has a binding signal (normalized occupancy) of 0.0829. With GGAATTTA the binding signal (normalized occupancy) was 0.0731. In the case of GACACTGA, the binding signal (normalized occupancy) is reported as 0.0732. Work on GCTAGCTA yielded a binding signal (normalized occupancy) of 0.0692. With AGTTACGA the binding signal (normalized occupancy) was 0.0728. For CTCCACAA, the binding signal (normalized occupancy) was 0.0785. In the case of AGCAACGC, the binding signal (normalized occupancy) is reported as 0.0759. ATAATGTA showed a binding signal (normalized occupancy) of 0.0785. GATGCCGC was tested, and the binding signal (normalized occupancy) was 0.0728. Work on CGTGAAGC yielded a binding signal (normalized occupancy) of 0.0768. ACTCGCAC showed a binding signal (normalized occupancy) of 0.0754. ACCCTTGG gave a binding signal (normalized occupancy) of 0.073. In the case of CCATGACA, the binding signal (normalized occupancy) is reported as 0.0836. ACATAGTA was tested, and the binding signal (normalized occupancy) was 0.0805. CCCACCCC was tested, and the binding signal (normalized occupancy) was 0.0962. Sequence GCTAAACC has a binding signal (normalized occupancy) of 0.068. With CGGGGTAG the binding signal (normalized occupancy) was 0.0745. Sequence ATCCTCGC has a binding signal (normalized occupancy) of 0.0792. AACTCGGA gave a binding signal (normalized occupancy) of 0.0717. AAGTGACA showed a binding signal (normalized occupancy) of 0.0696. For CCGGTCGA, the binding signal (normalized occupancy) was 0.0704. CGACTAGC showed a binding signal (normalized occupancy) of 0.0689. GCCATCGC gave a binding signal (normalized occupancy) of 0.0707. Work on AATTTATC yielded a binding signal (normalized occupancy) of 0.0771. TAAGAATA gave a binding signal (normalized occupancy) of 0.0806. AAAGCGGA showed a binding signal (normalized occupancy) of 0.0709. AAACGCAC gave a binding signal (normalized occupancy) of 0.0809. For ATAAGCCC, the binding signal (normalized occupancy) was 0.0759. Work on ATTGCACC yielded a binding signal (normalized occupancy) of 0.0832. AGAGAGAA was tested, and the binding signal (normalized occupancy) was 0.0699. Sequence TCATTGAA has a binding signal (normalized occupancy) of 0.0753. In the case of AAATATAC, the binding signal (normalized occupancy) is reported as 0.0881. In the case of ACAACGCT, the binding signal (normalized occupancy) is reported as 0.0803. In the case of GACCCACA, the binding signal (normalized occupancy) is reported as 0.0775. With GAGCCTGC the binding signal (normalized occupancy) was 0.071. With ACTCGCAG the binding signal (normalized occupancy) was 0.0677. Work on AAGCGTCA yielded a binding signal (normalized occupancy) of 0.0737. GAGAGCGA showed a binding signal (normalized occupancy) of 0.0704. CTGATACA gave a binding signal (normalized occupancy) of 0.0809. AAAGTGGC showed a binding signal (normalized occupancy) of 0.0672. With GAGGGGGC the binding signal (normalized occupancy) was 0.0771. AGCGCAAA gave a binding signal (normalized occupancy) of 0.0664. For ACCAACGT, the binding signal (normalized occupancy) was 0.0789. GGCAACCC gave a binding signal (normalized occupancy) of 0.0699. With AAATCACT the binding signal (normalized occupancy) was 0.0745. Sequence CCTAGCCA has a binding signal (normalized occupancy) of 0.0783. GATGTAGA was tested, and the binding signal (normalized occupancy) was 0.0799. For ATACTGTG, the binding signal (normalized occupancy) was 0.0808. Sequence CAATGTGC has a binding signal (normalized occupancy) of 0.0924. ACTCGGAT was tested, and the binding signal (normalized occupancy) was 0.074. CTCATAGC was tested, and the binding signal (normalized occupancy) was 0.0789. AATGATCC gave a binding signal (normalized occupancy) of 0.0784. ATCAAGAG showed a binding signal (normalized occupancy) of 0.0749. With CGTCTAAG the binding signal (normalized occupancy) was 0.0723. Work on GAATTGTA yielded a binding signal (normalized occupancy) of 0.0744. In the case of ACTTCCAA, the binding signal (normalized occupancy) is reported as 0.07. Sequence GCACTAAA has a binding signal (normalized occupancy) of 0.0704. With GTGGCTGA the binding signal (normalized occupancy) was 0.0794. Work on AGATTAGA yielded a binding signal (normalized occupancy) of 0.0745. For AGCCCATG, the binding signal (normalized occupancy) was 0.0859. GCTCGAGC was tested, and the binding signal (normalized occupancy) was 0.0735. CTCATACA gave a binding signal (normalized occupancy) of 0.0799. Sequence ACAGCGCT has a binding signal (normalized occupancy) of 0.0737. With AATGCAAA the binding signal (normalized occupancy) was 0.078. ACTGCAAC gave a binding signal (normalized occupancy) of 0.0754. Sequence ATCGCTCC has a binding signal (normalized occupancy) of 0.0708. With AGATATCG the binding signal (normalized occupancy) was 0.0755. For GAAGCAAC, the binding signal (normalized occupancy) was 0.0766. In the case of AGTCAGGA, the binding signal (normalized occupancy) is reported as 0.0709. ATGGAACG was tested, and the binding signal (normalized occupancy) was 0.0825. With CATCACCC the binding signal (normalized occupancy) was 0.0788. With AAAATCTA the binding signal (normalized occupancy) was 0.0767. Sequence TAGGGCCA has a binding signal (normalized occupancy) of 0.0687. GACCAGCA was tested, and the binding signal (normalized occupancy) was 0.0755. CTCGGGCC gave a binding signal (normalized occupancy) of 0.0685. With GCGCTCGA the binding signal (normalized occupancy) was 0.0726. For GGGAGAAA, the binding signal (normalized occupancy) was 0.0747. With CACCATGC the binding signal (normalized occupancy) was 0.108. Work on ATCAGAAC yielded a binding signal (normalized occupancy) of 0.075. For AGGTATAT, the binding signal (normalized occupancy) was 0.0856. Sequence ACACAGTA has a binding signal (normalized occupancy) of 0.0795. Sequence CACCTTAG has a binding signal (normalized occupancy) of 0.0719. CTTGAGTA was tested, and the binding signal (normalized occupancy) was 0.0664. With AGCGCCTG the binding signal (normalized occupancy) was 0.0742. For GACATCTA, the binding signal (normalized occupancy) was 0.072. Work on ATAACACC yielded a binding signal (normalized occupancy) of 0.081. Work on GGACGCAC yielded a binding signal (normalized occupancy) of 0.0836. In the case of AAGTATGT, the binding signal (normalized occupancy) is reported as 0.0819. CCGCCTTC was tested, and the binding signal (normalized occupancy) was 0.0732. For CGGAGGCC, the binding signal (normalized occupancy) was 0.0623. For CCGGCTCG, the binding signal (normalized occupancy) was 0.0672.
